The RNAGym collection of RNA variant scans (doi:10.1093/nar/gkz1192)
Read counts are not given, so values of variants with three or more changes are uncertain.

B1: CPEB3 Ribozyme (parent)
chain: UAACAGGGGGCCACAGCAGAAGCGUUCACGUCGCAGCCCCUGUCAGAUUCUGGUGAAUCUGCGAAUUCUGCUGUAUAUCUC

Variants of: B1
Test: self-cleavage, relative activity (ratio to wild type); higher = more cleavage; in vitro, sequencing
Procedure, shortened: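 Relative activity compares each variant's cleaved/total read fraction with that of the unmutated ribozyme. To get these fractions, barcoded CPEB3 ribozyme libraries from rounds of error-prone PCR were transcribed with T7 RNA polymerase for 5 hours at 37°C and then given 15 min of DNase I treatment before EDTA was added. The RNAs were reverse transcribed with template switching and sequenced on Illumina, and DNA sequencing linked barcodes to variants. A minimum of 5 reads applied, and three batches were averaged.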

Row | Variant | self-cleavage
1 | UGACAGUGGGCCACAGCAGCAGCGUUCACGUCGCAGCCCCGGUCAGAUUCUGGUGAAUCUGCGAAUACUGCUGUAAAUCUC [A2G G7U A20C U41G U67A U76A] | 0.03
2 | UGACAGUGGGCCAUAGCAGAAGCGUUCACGUCGCAGCCCCUGUCAGAUUCUGGUGAAUCUGCGAAUUCUGCUGCAUAUCUC [A2G G7U C14U U74C] | 0.1
3 | UGACAGUGGGCCACAGCAGAAGCGUUCACGUCGCAGCCCCUGUCAGACUCUGGCGAGUCUGCGAAUUCUGCUGUAUAUCUC [A2G G7U U48C U54C A57G] | 0.34
4 | UGACAGUGGGCCACAGCAGAAGCGUUCACGUCGCAGCCCCUGUCAGAUUCUGGUGAAUCUGCGAAUUCUGCUGAAUAUCUC [A2G G7U U74A] | 0.54
5 | UGACAGGAGGCCACGGCAGAAGCGUUCACGUCGCGGCCCCGGCCAGAUUCUGGUGAAUCUGCGAAUUCUGCUGUAUUUCUC [A2G G8A A15G A35G U41G U43C A77U] | 0.04
6 | UGACAGGAGGCCACAGCAGAAGCGUUCUCGUCGCAGCCCCUGACGGAUUCUGGUGAAUCUGCGAAUUCUGCUGUAUAUCUC [A2G G8A A28U U43A A45G] | 0.24
7 | UGACAGGAGGCCACAGCAGAAGCGUUCACGUCGCAGCCCCUAUCAGAUUCUGGUGAAUCUGCGAAUUCUGCUGUAUAUCUC [A2G G8A G42A] | 0.1
8 | UGACAGGAGGCCACAGCAGAAGCGUUCACGUCGCAGCCCCUGUCAGAUUCUGGUGAAUCUGCGAAUUCUGCUGUAUAUCAC [A2G G8A U80A] | 0.08
9 | UGACAGGCGGCCACAGCGGAAGCGUUCACGACGCAGCCCCUGUCAGAUUCUGGCGAAUCUGCGAAUUCUGCUGUAUCGCUC [A2G G8C A18G U31A U54C A77C U78G] | 0.03
10 | UGACAGGCUGCCACAGCUGAAGCGUUCACGUCGCAGCCCCUGUCAGAUUCUGGUGAAUCUGCGAAUUCUGCUGUGUAUCUC [A2G G8C G9U A18U A75G] | 0.46
11 | UGACAGGUGGCCACAGCAGAGGCGUUCACGUCGCAGCCCCUGUCAGAUUCUGGUGAAUCUGCGAAUUCUGCUGUAUAUCUC [A2G G8U A21G] | 0.06
12 | UGACAGGUGGCCACAGCAGAAGCGUACACGUCGCAGCCCCCGUCAGAUCCUGGUGAAUCUGCAAAUUCUGCUGUAUACCUC [A2G G8U U26A U41C U49C G63A U78C] | 0.05
13 | UGACAGGGAGCCACAGCUGAAGCGUUCACGUCGCAGCCCCUGUCAGAUUCUGGUGUAUCUGCGAAUUCUGCUGUAUAUCUC [A2G G9A A18U A56U] | 0.07
14 | UGACAGGGAGCCACAGCAGGAGCGUUCACGUCGCAGCCCCUGUCAGAUUCUGGUGAAUCUGCGAAUUCUGCUGUAUACCUC [A2G G9A A20G U78C] | 0.32
15 | UGACAGGGUGCCACAGCGGAAGCGUUCACGCCGCAGCCCCUGUCAGAUUCUGGUGAAUCUGCGAAUUCUGCUGUAUAUCUC [A2G G9U A18G U31C] | 0.39
16 | UGACAGGGUGCCACAGCAGAAGCGUUCACGUCGCUGCCCCUGUCAGAUUCUGGUGAAUCUGCGAAUUCUGCUGUAUAUCUC [A2G G9U A35U] | 0.25
17 | UGACAGGGUGCCACAGCAGAAGCGCUCACGUCGCAGCCCCUGUCAGAUUCUGGUGAAUCUGCGAAUUCUGCUGUAUAUCUC [A2G G9U U25C] | 0.29

Row | Variant | self-cleavage
18 | UGACAGGGGACCACAGCAGGAGCGUUCACGUCGCAGCCCCUGUCAGAUUCUGGUGAAUCUGCGAAUUCUGCUGUAUAUCUC [A2G G10A A20G] | 0.37
19 | UGACAGGGGACCACAGCAGAAGCGUUCACGUCGCAGCCCCUGUCAGAUUCUGGUGAAUCUGCGGAUUCUGCUGUAUAUCUC [A2G G10A A64G] | 0.31
20 | UGACAGGGGUCCACAGCAGAAGCGUUCACGUCGCAGCCCCUGUCAGAUUAAGGUGAAUCUGCGAAUUCUGCUAUAUACCUC [A2G G10U C50A U51A G73A U78C] | 0.28
21 | UGACAGGGGUCCACAGCAGAAGCGUUCACGUCGCAGCCCCUGUCAGAUUAAGGUGAAUCUGCGAAUUCUGCUGUAUACCUC [A2G G10U C50A U51A U78C] | 0.21
22 | UGACAGGGGGCCACACCAGAAGCGUUCACGACGCUGCCCCUGUCAGAUUCUGGUGGAUCUGCGAAUUCUGCUGUAUAUCUC [A2G G16C U31A A35U A56G] | 0.09
23 | UGACAGGGGGCCACAUCGGAAGCGCUCACGUCGCAGCCCCUGUCAGAUUCUGGUGAAUCUGCGAAUUCUGCUGUAUACCUC [A2G G16U A18G U25C U78C] | 0.39
24 | UGACAGGGGGCCACAUCAGAAGCGUUCACGUCGCAGCCCCUGUCAGAUCCUGGUGUACCUGCGAAUUCUGCUGUAUAUCUC [A2G G16U U49C A56U U58C] | 0.11
25 | UGACAGGGGGCCACAGCAGAAGCAUUCACGUCGCAGCCCCUGUCAGAUUCUGGUGAAUCUGCGGAUUCUGCUGUAUAUCUC [A2G G24A A64G] | 0.26
26 | UGACAGGGGGCCACAGCAGAAGCAUCCACGUCGCAGCCCCUGUCAGAUUCUGGUGAAUCUGCGAAUUCUGCUGUAUGUCUC [A2G G24A U26C A77G] | 0.34
27 | UGACAGGGGGCCACAGCAGAAGCGUUCACAUCGCGGCCCCUGGCAGAUUCUGGUGAAUCUGCGAAUUCUGCUGUAUAUCUC [A2G G30A A35G U43G] | 0.26
28 | UGACAGGGGGCCACAGCAGAAGCGUUCACAUCGCAGCCCCUGUCUGAUUCUGGUGAAUCUGCGAAUUCUGCUGUAUAUCUC [A2G G30A A45U] | 0.27
29 | UGACAGGGGGCCACAGCAGAAGCGUUCACAUCGCAGCCCCUGUCAGAUUCUGGUGAAUCUGCGAAUCCUGCUGUAUAUGUC [A2G G30A U67C C79G] | 0.05
30 | UGACAGGGGGCCACAGCAGAAGCGUUCACCUCGCAGCCCCUGUCACAUUCUGGUGAUUCUGCAAAUUCUGCUGUAUAUCUC [A2G G30C G46C A57U G63A] | 0.18
31 | UGACAGGGGGCCACAGCAGAAGCGUUCACGUCACAGCCCUCCUCAGAUUCUGGUGAAUCCGCGAAUUCUGCUGUAUAUCUC [A2G G33A C40U U41C G42C U60C] | 0.09
32 | UGACAGGGGGCCACAGCAGAAGCGUUCACGUCACAGCCCCUGCCAGAUUCUGGUGAGUCUGCGAAUUCUGCUGAAUAUCUC [A2G G33A U43C A57G U74A] | 0.06
33 | UGACAGGGGGCCACAGCAGAAGCGUUCACGUCCCAGCCCCUGUCGGAUUCUAGUGUAUCUGCGAAUUCUGCUGUAUAUCUC [A2G G33C A45G G52A A56U] | 0.16
34 | UGACAGGGGGCCACAGCAGAAGCGUUCACGUCCCAGCCACUGUCAGACUCUGGUGAAUCUGCGAAUUCUGCUGCCUAUCUC [A2G G33C C39A U48C U74C A75C] | 0.22
